{"source": "paper PMC12136788", "binders": {"B1": {"name": "chr13:42874254:42874255:+_ENSG00000023516_ENST00000025301|hu_mus|motif|central (ssRNA)", "RNA": "GGGAGUUCUACAGUCCGACGAUCUUCACUAGUAUCUGUUUGGCAAAACCAUUCAGCAGGAGUACAGCUUCCAGGAGGACGGAAAGCUGAGGUUCGAAUAGGGCUGAACAAGCCACUAUCCUCUGAUGUCAUCACCGGACGAGGCAACAGAGGAUUGAGCAUCA"}, "B2": {"name": "chr3:57569700:57569701:-_ENSG00000168374_ENST00000303436|hu_mus|FALSE|FALSE (ssRNA)", "RNA": "GGGAGUUCUACAGUCCGACGAUCCACAAAAAUGAGACCCUGGGUAUUCUGGAAGUAAUGCCUCCAGAGAGGCCUAAUUUUAUCUUGACCACCAACAUCCCAUACUGUGAAACAAAUGUUCUUAUAUUCUACUGUUUCCACAUUCAACAGAGGAUUGAGCAUCA"}, "B3": {"name": "chr14:49642940:49642941:-_ENSMUSG00000061244_ENSMUST00000162175|mus_hu|FALSE|FALSE (ssRNA)", "RNA": "GGGAGUUCUACAGUCCGACGAUCCAAAGCAUAAUCAAUAUGCUCAAUACAUAAAAAUUCCACAAGAAUGGUAAAAAUUCUGAAGGCAUUCCUUGGUAAGUCAGAAGGAUCAGAGAGCCUAUGACAUCUUUCAAAGGCUUGUUUCAACAGAGGAUUGAGCAUCA"}, "B4": {"name": "chr2:47387792:47387793:-_ENSG00000143933_ENST00000272298|hu_hu|hu_hu_hu_mus_True|1_28 (ssRNA)", "RNA": "GGGAGUUCUACAGUCCGACGAUCUAAGGACAAUGACAGUAAGAUAAGGGAAGAAAACAUGGAGGAAUGAAGUCCUAAUUACUAUACAUGCAUAUUUUUUGACAGUAAGGGAGAAACACCUUUUACAGAUAAGUUACACAAAGACAACAGAGGAUUGAGCAUCA"}, "B5": {"name": "93480285_93480405_1884_3pUTR_ENSMUSG00000056608_ENSMUST00000048665|mouse|control|control (ssRNA)", "RNA": "GGGAGUUCUACAGUCCGACGAUCCCUUUUCUUGCUUGCUUUCUGAUUCCACCCUUUUUCGUGGCUUCUUCUCAGACAUGACCCUCACCUGGGUAUUCUGCAGCUUAGUGUAUGUCCCAGAACCAUCACUCUUCUUGGAAGAUGCAACAGAGGAUUGAGCAUCA"}, "B6": {"name": "70732754_70734444_1896_3pUTR_ENSMUSG00000020817_ENSMUST00000076270|mouse|control|control (ssRNA)", "RNA": "GGGAGUUCUACAGUCCGACGAUCGCUUGAGGAAGUCCUCCAGCUCCUGCUUCUCUUUCAUCGUCUUCUCAAGCUGGUCAUUAGCUUGCCUGAGCAUUAACUGCAGUUUUUUCACCUGGUCUCUUGUUUCAGCUUCCUGAAUCUCAACAGAGGAUUGAGCAUCA"}}, "note": "Some of the results follow."}
{"target": "T1, UNK ZnF1-3 (human, UniProt Q9C0B0 31-174)", "T1 sequence": "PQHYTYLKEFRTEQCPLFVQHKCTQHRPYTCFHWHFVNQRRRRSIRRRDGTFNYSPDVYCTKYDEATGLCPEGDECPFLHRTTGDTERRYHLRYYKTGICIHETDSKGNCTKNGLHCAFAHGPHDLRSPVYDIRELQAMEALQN", "assay": "nsRBNS (natural sequence RNA bind-n-seq); RBNS binding buffer (assumed for nsRBNS): 25 mM Tris pH 7.5, 150 mM KCl, 3 mM MgCl2, 0.01% Triton X-100, 500 ug/ml BSA, 20 U/ml SUPERase-In, 4 C; UNK is unkempt and MSI1 is Musashi-1; names of the RNAs are library labels; protein concentration not given here; high values mean tight binding", "units": {"binding signal": "enrichment R"}}
{"binder": "B1", "binding signal": 1.18}
{"binder": "B2", "binding signal": 1.21}
{"binder": "B3", "binding signal": 0.354}
{"binder": "B4", "binding signal": 1.95}
{"binder": "B5", "binding signal": 0.409}
{"binder": "B6", "binding signal": 0.41}
